Reference: patent publication US7410975B2, “Small molecule toll-like receptor (TLR) antagonists” (Coley Pharmaceutical Group, Inc., priority 2003, dated 2008)
Counter-ions that a name gives are not always drawn.

Molecular target: T1, human TLR3 (hTLR3) (Homo sapiens, UniProt O15455)
T1 construct: expressed in transfected cells
T1 sequence (O15455 24-904): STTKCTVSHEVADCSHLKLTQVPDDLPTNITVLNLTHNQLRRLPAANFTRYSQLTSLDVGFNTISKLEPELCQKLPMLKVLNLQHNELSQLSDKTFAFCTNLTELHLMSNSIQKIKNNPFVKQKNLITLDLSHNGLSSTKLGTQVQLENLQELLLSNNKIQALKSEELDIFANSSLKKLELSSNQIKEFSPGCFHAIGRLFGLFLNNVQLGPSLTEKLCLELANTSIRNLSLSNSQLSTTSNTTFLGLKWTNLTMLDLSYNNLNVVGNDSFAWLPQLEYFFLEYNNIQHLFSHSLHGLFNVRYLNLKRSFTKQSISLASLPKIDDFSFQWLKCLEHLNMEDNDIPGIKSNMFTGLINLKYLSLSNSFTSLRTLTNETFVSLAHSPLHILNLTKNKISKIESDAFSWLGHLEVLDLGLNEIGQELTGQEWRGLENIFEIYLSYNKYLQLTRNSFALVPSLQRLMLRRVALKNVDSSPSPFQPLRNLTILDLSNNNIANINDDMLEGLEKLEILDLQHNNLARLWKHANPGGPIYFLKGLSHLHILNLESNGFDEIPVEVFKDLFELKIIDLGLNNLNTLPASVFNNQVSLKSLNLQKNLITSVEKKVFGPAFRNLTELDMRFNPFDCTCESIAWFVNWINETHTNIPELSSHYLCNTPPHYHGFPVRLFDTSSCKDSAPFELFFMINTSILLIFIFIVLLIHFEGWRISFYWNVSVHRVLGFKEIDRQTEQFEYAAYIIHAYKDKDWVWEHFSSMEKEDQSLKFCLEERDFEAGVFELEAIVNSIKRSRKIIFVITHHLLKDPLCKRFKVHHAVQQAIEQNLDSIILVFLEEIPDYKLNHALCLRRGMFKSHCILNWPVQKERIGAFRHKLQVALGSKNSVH
Assay: Antagonist screen, hTLR3-NFκB-293 cells, NF-κB-luciferase reporter, with EC50 of poly(I:C)
Format: cell-based
Settings: compound at 0.5, 5, 50 μg/ml, EC50 concentration of poly(I:C), 16 h
Experimental: The method is described in greater detail as follows. The cells for each individual cell clone (hTLR3-NFκB-293, hTLR7-NFκB-293, hTLR8-NFκB-293 and hTLR9-NFκB-293) were counted and seeded one day before the stimulation at 1.5×10^4 cells per well in 96-well cell culture plates. To become adherent the cells were incubated after seeding overnight at 37° C. in 5% CO2 humidified air.
The screen for each compound was performed at the same time for all of the receptors TLR3, TLR7, TLR8 and TLR9. Up to fifteen test compounds, each assayed in duplicate at each of three different final concentrations (0.5 μg/ml, 5 μg/ml, and 50 μg/ml), were used for 16 h cell stimulation on a single multiwell culture plate. A 4× final concentration master plate was created to prepare the different test compounds before they were added to the cells.
Controls were added as duplicates individually for each cell clone on the cell culture plate. Positive controls were used as follows (final concentrations): 50 μg/ml poly(I:C) for hTLR3-NFκB-293; 8 μM resiquimod (R848) for hTLR7-NFκB-293; 30 μM R848 for hTLR8-NFκB-293; and 2.5 μM CpG-ODN 2006 for hTLR9-NFκB-293. Media alone was used as negative control. After addition of controls and small molecules, the cell clones were additionally stimulated with the EC50 concentration of the appropriate receptor-specific ligand. […]
The baseline result (measured with addition of the EC50 concentration of the receptor-specific ligand) for each cell culture plate was measured as described above. Antagonistic effects were measured by down regulation compared to the baseline. Antagonists were scored as follows: • 13: compounds for which there was clear down regulation at 0.5 μg/ml, 5 μg/ml, and 50 μg/ml; • 12: compounds for which there was clear down regulation at 5 μg/ml and 50 μg/ml; • 11: compounds for which there was clear down regulation only at 50 μg/ml; • —: compounds for which there was no clear down regulation even at 50 μg/ml. […]
Results were expressed as fold induction over baseline luciferase activity measured in the absence of poly(I:C). […]

Row | Compound | hTLR3 (inhibitory effect, antagonist score)
1 | CN1CCN2c3ccccc3Cc3ccccc3C2C1.Cl (stereo not drawn) [compound 99, Mianserinehydrochloride] | 11 (compounds for which there was clear down regulation only at 50 μg/ml)
2 | Cc1ccccc1C(OCCN(C)C)c1ccccc1 (stereo not drawn) [compound 239, Orphenadrinehydrochloride] | — (compounds for which there was no clear down regulation even at 50 μg/ml)
3 | CN1CCC[C@@H]1CCO[C@](C)(c1ccccc1)c1ccc(Cl)cc1.O=C(O)/C=C/C(=O)O [compound 306, Clemastine fumarate] | 11 (compounds for which there was clear down regulation only at 50 μg/ml)
